Values quoted from earlier work in patent publication US8076375B2 (priority 2005, dated 2011).

Conditions: 50 μM, three cell-based assays; cited from earlier work

SMILES: O=C(O)c1cc2c(cc1S(=O)(=O)O)C1C(C3C2C2(Cl)C(Cl)=C(Cl)C3(Cl)C2(Cl)Cl)C2(Cl)C(Cl)=C(Cl)C1(Cl)C2(Cl)Cl (stereo not shown) [Compound 270718-R, 3-sulfo-2-naphthoic acid-bis(hexachlorocyclopentadiene) adduct]
- Growth inhibition in NCI/NIH-conducted cell assays: No growth inhibition
